# Laboratory results as given in article PMC4336329 (PLoS ONE, 2015).
# In all, about 310,000 compounds went through this assay and about 2,200 (0.71%) showed an effect of 50% or more. Effects have a minus sign here. This is one part of the list.
# Biological target: human ether-à-go-go-related gene (hERG) potassium channel (human, UniProt Q12809)
# Assay: primary screen, population patch clamp on CHO cells stably expressing hERG
# human ether-à-go-go-related gene (hERG) potassium channel, sequence (Q12809 whole entry, looked up): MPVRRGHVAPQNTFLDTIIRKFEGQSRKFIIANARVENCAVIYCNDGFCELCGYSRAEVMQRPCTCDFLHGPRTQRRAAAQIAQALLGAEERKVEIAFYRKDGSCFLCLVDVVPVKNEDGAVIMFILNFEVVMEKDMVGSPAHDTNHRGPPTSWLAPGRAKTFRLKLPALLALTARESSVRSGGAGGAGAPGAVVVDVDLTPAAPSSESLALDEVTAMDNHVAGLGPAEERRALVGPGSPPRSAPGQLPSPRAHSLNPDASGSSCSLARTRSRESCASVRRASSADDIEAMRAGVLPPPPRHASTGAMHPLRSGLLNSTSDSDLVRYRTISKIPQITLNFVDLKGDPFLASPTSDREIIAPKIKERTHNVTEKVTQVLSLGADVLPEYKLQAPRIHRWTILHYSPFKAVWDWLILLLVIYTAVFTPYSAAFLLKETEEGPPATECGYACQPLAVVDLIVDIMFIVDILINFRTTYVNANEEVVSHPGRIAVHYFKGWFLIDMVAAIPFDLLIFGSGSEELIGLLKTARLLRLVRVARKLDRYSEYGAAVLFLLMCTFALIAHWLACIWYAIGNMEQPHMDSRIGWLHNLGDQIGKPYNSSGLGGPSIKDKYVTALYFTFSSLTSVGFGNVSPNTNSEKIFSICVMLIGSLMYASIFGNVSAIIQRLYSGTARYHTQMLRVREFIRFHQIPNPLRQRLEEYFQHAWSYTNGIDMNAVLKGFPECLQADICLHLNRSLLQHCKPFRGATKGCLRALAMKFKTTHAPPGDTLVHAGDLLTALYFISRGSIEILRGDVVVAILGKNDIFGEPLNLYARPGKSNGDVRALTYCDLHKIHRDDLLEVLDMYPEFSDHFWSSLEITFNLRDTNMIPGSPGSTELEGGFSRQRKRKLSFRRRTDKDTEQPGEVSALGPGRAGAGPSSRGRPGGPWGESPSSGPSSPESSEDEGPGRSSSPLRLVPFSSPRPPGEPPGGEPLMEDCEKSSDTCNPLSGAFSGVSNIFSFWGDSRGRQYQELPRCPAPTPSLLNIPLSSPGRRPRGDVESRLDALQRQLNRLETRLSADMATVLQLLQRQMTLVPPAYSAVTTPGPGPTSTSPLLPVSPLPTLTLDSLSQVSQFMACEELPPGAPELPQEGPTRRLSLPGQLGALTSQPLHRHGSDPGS
row,Structure (SMILES),"hERG current change (%, negative = inhibition) at 1uM"
1,O=C(NCCCn1ccnc1)C(=O)NCC(c1cccnc1)N1CCN(c2ccc(F)cc2)CC1 (centres unmarked),8.4%
2,O=[N+]([O-])c1cc(Br)c(Nc2ccccc2)c([N+](=O)[O-])c1,5.87%
3,Cc1cc(OCC(=O)NCc2ccncc2)c2c(C)c(C)c(=O)oc2c1,-7.2%
4,CCN1CCN(S(=O)(=O)c2ccc(Cl)c(C(=O)N(C)Cc3cccs3)c2)CC1,7.19%
5,CC(=O)Nc1ccc(S(=O)(=O)N2C(=O)c3cccc4cccc2c34)cc1,1.58%
6,CCCCc1nc(C(N)=O)c2[nH]c(=O)n(-c3ccc(OCC)cc3)c2n1,2.29%
7,Cc1nc(Nc2ccccc2C(F)(F)F)sc1C(=O)N(C)C,4.52%
8,CCOc1ccc(N=Nc2c(=O)[nH]n3c(=O)cc(C)[nH]c23)cc1,-2.15%
9,CC(=O)N1CCN(C(=O)c2ccc(OC3CCN(Cc4ccccn4)CC3)cc2)CC1,16%
10,CCC(CC)C(=O)NCCCN1CCOCC1,18.9%
11,CC(OC(=O)C1CCN(S(=O)(=O)c2ccc(C(C)(C)C)cc2)CC1)C(=O)N1CCOCC1 (centres unmarked),-0.109%
12,C[N+]12CCCCC1[C@@H](CO)CCC2.[Br-] (some centres unmarked),8%
13,Cc1ccc(C2=NNC(=O)C(P(=O)(c3ccccc3)c3ccccc3)C2)cc1 (centres unmarked),4.78%
14,CC1(C)O[C@@H]2[C@H](O1)[C@@H](COS(=O)(=O)[O-])O[C@H]2n1c(=S)[nH]c2c(=O)[nH]c(N)nc21.[K+],12.6%
15,CCCc1cc2c(cc1NC(=O)c1ccccc1C)OCO2,11.2%
16,O=C(CSc1nc2cc(C(=O)O)ccc2c(=O)n1-c1ccc(F)cc1)Nc1ccc(F)c(F)c1F,1.53%
17,CC1CC1C(=O)N1CCN(S(=O)(=O)c2cc(C(F)(F)F)cc(C(F)(F)F)c2)CC1 (centres unmarked),-1.95%
18,COc1ccc(/C(C)=N/OCC(=O)N2CC3(C)CC2CC(C)(C)C3)cc1 (centres unmarked),7.28%
19,Cc1nnc(SCC(=O)c2c(N)n(C3CC3)c(=O)[nH]c2=O)n1-c1ccccc1,4.54%
20,C/C(=N/NC(=O)CNC(=O)c1ccccc1F)c1ccc2c(c1)CCCC2,-3.08%
21,O=S(=O)(c1ccc(SCc2ccc(Br)cc2)nc1)N1CCOCC1,7.97%
22,CCOc1ccc(S(=O)(=O)NCC2CCCO2)c2cccnc12 (centres unmarked),10.4%

row,Structure (SMILES),"hERG current change (%, negative = inhibition) at 1uM"
1,Cc1ccc(CNC(=O)CCC(=O)N2CC(C)Oc3ccccc32)cc1 (centres unmarked),2.44%
2,O=C(CS(=O)(=O)Cc1ccccc1)Nc1nc2ccccc2s1,0.335%
3,Cc1sc2ncnc(N3CCC(C(=O)Nc4sc5c(c4C(N)=O)CCC(C)C5)CC3)c2c1C (centres unmarked),5%
4,CN(CC(=O)Nc1cccc(F)c1)CC(=O)N(C)CC(=O)Nc1ccccc1Br,-0.525%
5,O=C(NC12CC3CC(CC(C3)C1)C2)N1CCC(n2nnc3ccccc32)CC1,14.8%
6,CCN1C(=NCCOC)N[C@@H](CCc2ccccc2)[C@H](C(=O)OC)[C@H]1C,0.82%
7,CC(=O)NC1=NN(C(C)=O)C(c2ccc(C(C)C)cc2)S1 (centres unmarked),9.16%
8,CCOC(=O)c1[nH]c(C)c(C(=O)NC(C)(C)C)c1C,1.95%
9,O=C1NC(=O)C2(Cc3c(nc4ccccn4c3=O)N3CCCCCC32)C(=O)N1Cc1ccccc1 (centres unmarked),1.89%
10,CCCCc1cc(=O)oc2c(CN(C)C)c(O)ccc12,-13%
11,COC(=O)c1ccc(/C=C/c2ccc3cccc(OC(C)=O)c3n2)cc1,8.89%
12,Cc1ccc(-c2csc(NC(=O)c3cccc(S(=O)(=O)N4CCN(C)CC4)c3)n2)cc1,2.74%
13,O=C(CSc1ccc(-c2ccccc2)nn1)c1ccccc1,1.6%
14,O=C(Cn1nnc(-c2ccc(CN3CCOCC3)cc2)n1)Nc1nc(-c2ccccc2)cs1,-7.77%
15,CC(C)(C)C(=O)NNc1nc(-c2ccccc2)c2cc(Br)ccc2n1,7.18%
16,CCOC(=O)C(Cc1c[nH]c2ccccc12)NC(=O)c1ccccc1Br (centres unmarked),8.17%
17,CCCn1c(N)c(N(CCOC)C(=O)c2ccccc2)c(=O)[nH]c1=O,7.61%
18,Nc1cc2c(cc1[N+](=O)[O-])OCCOCCOCCO2,8.23%
19,CC(=O)c1cccc(NC(=O)Cn2cnc(S(=O)(=O)N3CCc4ccccc43)c2)c1,14.1%
20,Cc1ccccc1Nc1nc(N)nc(CN2C(=O)NC3(CCCCC3C)C2=O)n1 (centres unmarked),-8.48%
21,CC1CN(Cc2ccc(C#N)cc2Cl)CC(C)O1.Cl (centres unmarked),6.09%
22,O=C(Nc1ccc(Cl)c(Cl)c1)Nc1ccccc1C(=O)O,7.58%
